The other results are listed elsewhere or left out. Values were computed here from the reads of four pooled replicates and scatter widely.
These sequences were tested against T1, Pho4 (S. cerevisiae) (UniProt P07270) (assay: relative binding free energy (BET-seq); higher = weaker binding). Settings: reference: library average.
T1 sequence: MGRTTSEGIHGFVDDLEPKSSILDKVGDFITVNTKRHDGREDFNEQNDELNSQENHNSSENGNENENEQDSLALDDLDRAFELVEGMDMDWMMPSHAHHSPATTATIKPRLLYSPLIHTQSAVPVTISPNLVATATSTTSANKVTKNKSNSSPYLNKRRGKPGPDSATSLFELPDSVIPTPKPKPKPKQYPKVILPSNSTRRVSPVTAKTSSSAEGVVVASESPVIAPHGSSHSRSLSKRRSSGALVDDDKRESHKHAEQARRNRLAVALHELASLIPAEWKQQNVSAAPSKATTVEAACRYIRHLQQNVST

| Sequence | relative binding free energy |
| --- | --- |
| AATTGCACGTGGAGTA | -0.05 kcal/mol |
| ATCTGCACGTGAGGAG | 0.31 kcal/mol |
| GGTTCCACGTGGTAAG | 0.12 kcal/mol |
| TTTGCCACGTGTGGGC | 0.1 kcal/mol |
| GGTTACACGTGAGTGA | 0.28 kcal/mol |
| TTGTCCACGTGGGGAT | -0.13 kcal/mol |
| TATTTCACGTGGATGA | 0.33 kcal/mol |
| GTGTACACGTGGATTT | 0.24 kcal/mol |
| TGCTACACGTGAGTTG | 0.37 kcal/mol |
| GTCTTCACGTGGTGTC | 0.18 kcal/mol |
| TTCTGCACGTGAGGGA | 0.3 kcal/mol |
| GGGCTCACGTGGGTTT | 0.24 kcal/mol |
| TGTTTCACGTGTAACA | 0.34 kcal/mol |
| GTCAGCACGTGTGTAG | 0.03 kcal/mol |
| GAATACACGTGTAGTA | 0.29 kcal/mol |
| CTTGTCACGTGTTCGT | 0.08 kcal/mol |
| GGAGCCACGTGTGTGA | -0.02 kcal/mol |
| TATAGCACGTGGCGGT | -0.19 kcal/mol |
| GGTTACACGTGAAATA | 0.42 kcal/mol |
| GGCAGCACGTGGGCAG | -0.19 kcal/mol |
| GTTTGCACGTGCGATA | 0.05 kcal/mol |
| AAGGGCACGTGATCGT | -0.13 kcal/mol |
| GTTAACACGTGATGTG | 0.15 kcal/mol |
| AGGGTCACGTGTTACT | 0.13 kcal/mol |
| ATGGGCACGTGTTGCA | -0.14 kcal/mol |

| Sequence | relative binding free energy |
| --- | --- |
| GTTACCACGTGATTGT | 0.04 kcal/mol |
| GTAATCACGTGCGGGT | 0.29 kcal/mol |
| TTGCACACGTGGTAGT | -0.03 kcal/mol |
| TATTACACGTGTTTTT | 0.05 kcal/mol |
| TTTAGCACGTGGGAGT | -0.08 kcal/mol |
| CTGGGCACGTGCAGGT | -0.07 kcal/mol |
| TGTGGCACGTGTGTTT | -0.02 kcal/mol |
| CTTGACACGTGTATGT | 0.05 kcal/mol |
| TGTTGCACGTGTTATT | -0.08 kcal/mol |
| AGTTGCACGTGGTAAG | -0.21 kcal/mol |
| TGTCTCACGTGGAATT | 0.29 kcal/mol |
| ATTTACACGTGGTATA | -0.11 kcal/mol |
| AAAGTCACGTGATTTA | 0.2 kcal/mol |
| TAGGGCACGTGATTAG | -0.11 kcal/mol |
| CAATGCACGTGGGGGC | -0.13 kcal/mol |
| ATATGCACGTGATCGG | 0 kcal/mol |
| CGGATCACGTGTGTGT | 0.14 kcal/mol |
| GTGGTCACGTGCTTAG | 0.1 kcal/mol |
| TATTCCACGTGGGAGG | 0.02 kcal/mol |
| TTTGGCACGTGTGTTC | 0 kcal/mol |
| GGTATCACGTGATAGA | 0.43 kcal/mol |
| TGGTACACGTGGTGTC | -0.07 kcal/mol |
| CAGGGCACGTGGGAGT | -0.19 kcal/mol |
| AGGGGCACGTGATTTT | -0.01 kcal/mol |
| TATGTCACGTGGTGGC | -0.01 kcal/mol |

| Sequence | relative binding free energy |
| --- | --- |
| GTTTGCACGTGGTAGG | 0.03 kcal/mol |
| GATTTCACGTGTAAAT | 0.39 kcal/mol |
| GCGGCCACGTGGGGCG | -0.24 kcal/mol |
| GGAGTCACGTGGGAAT | 0.06 kcal/mol |
| CTGGGCACGTGGGATG | -0.31 kcal/mol |
| GTGGGCACGTGCGTAC | -0.14 kcal/mol |
| TACTGCACGTGCGTTT | 0.04 kcal/mol |
| GTTAGCACGTGGAAAT | 0.2 kcal/mol |
| TTGAACACGTGTTGAT | -0.08 kcal/mol |
| ATGGGCACGTGGGATC | -0.02 kcal/mol |
| CTAGGCACGTGAGTTA | 0.04 kcal/mol |
| GTGAGCACGTGGGAAA | 0 kcal/mol |
| GGCTGCACGTGGGGCC | -0.06 kcal/mol |
| TGGTACACGTGGTTAA | 0.12 kcal/mol |
| TGGGGCACGTGGAGAG | -0.11 kcal/mol |
| AGTGTCACGTGGGAGC | 0.05 kcal/mol |
| ATAATCACGTGAAGGG | 0.26 kcal/mol |
| CGGGCCACGTGGTTGT | -0.04 kcal/mol |
| TGGCGCACGTGGTTGA | -0.14 kcal/mol |
| CGTTGCACGTGGTGCT | -0.01 kcal/mol |
| TAAATCACGTGTGCGG | 0.19 kcal/mol |
| TATACCACGTGGTGGG | -0.18 kcal/mol |
| AACGGCACGTGGAAGG | 0.12 kcal/mol |
| GGGGACACGTGATTGA | 0.14 kcal/mol |
| TGTGTCACGTGGACAG | 0.15 kcal/mol |

| Sequence | relative binding free energy |
| --- | --- |
| TTGGCCACGTGTGAAT | 0.05 kcal/mol |
| AGTCTCACGTGGTTTG | 0.27 kcal/mol |
| ACAGTCACGTGGTTTT | -0.01 kcal/mol |
| GAGAGCACGTGTTGGG | -0.02 kcal/mol |
| GGAGTCACGTGAGGTG | 0.4 kcal/mol |
| GGCGTCACGTGGGTGC | -0.01 kcal/mol |
| TAAGGCACGTGCATTT | -0.17 kcal/mol |
| TTGAACACGTGGGTGG | -0.08 kcal/mol |
| TGAATCACGTGATTCG | 0.4 kcal/mol |
| GTTGTCACGTGTGGGA | 0.19 kcal/mol |
| GATATCACGTGTGTCT | 0.23 kcal/mol |
| GTAATCACGTGGCTTT | 0.05 kcal/mol |
| AGCGTCACGTGTTGTA | 0.1 kcal/mol |
| TTGGCCACGTGAGGAG | 0.16 kcal/mol |
| TGATGCACGTGGAAGA | 0.04 kcal/mol |
| TGACGCACGTGGGGGC | -0.18 kcal/mol |
| TAATGCACGTGCAGGG | -0.16 kcal/mol |
| CTTTCCACGTGTTAGG | 0.17 kcal/mol |
| GTTCGCACGTGTGCGT | -0.01 kcal/mol |
| GGTGTCACGTGTCTGT | 0.15 kcal/mol |
| CGATTCACGTGTGTAT | 0.32 kcal/mol |
| TTGTCCACGTGTGTTA | -0.04 kcal/mol |
| TGCGTCACGTGTGGGG | 0.09 kcal/mol |
| AGGTACACGTGATAGG | 0.24 kcal/mol |
| GTTTGCACGTGTGTAG | 0.05 kcal/mol |

| Sequence | relative binding free energy |
| --- | --- |
| GTACCCACGTGTGGGG | -0.09 kcal/mol |
| GAAGTCACGTGATGTT | 0.24 kcal/mol |
| GAAAGCACGTGGGGAT | -0.16 kcal/mol |
| CAAATCACGTGGTGTG | -0.07 kcal/mol |
| TGGCGCACGTGCATGT | -0.17 kcal/mol |
| GGTTACACGTGAGGTG | 0.27 kcal/mol |
| TTCATCACGTGAGGGG | 0.37 kcal/mol |
| AAGGACACGTGTCTGG | 0.17 kcal/mol |
| TTAAGCACGTGTGCGG | -0.12 kcal/mol |
| TGCTTCACGTGTGGCG | 0.11 kcal/mol |
| TTGGGCACGTGCACTG | -0.1 kcal/mol |
| TTGTTCACGTGCTGCG | 0.23 kcal/mol |
| ACTGACACGTGTGGTT | -0.07 kcal/mol |
| GGTGACACGTGTTTTA | -0.03 kcal/mol |
| TATCTCACGTGATAGT | 0.2 kcal/mol |
| GTTCGCACGTGGACGG | 0.07 kcal/mol |
| TCCTGCACGTGGGGTG | -0.21 kcal/mol |
| GATCACACGTGGTTTG | 0.23 kcal/mol |
| ATGGACACGTGCGGTG | -0.04 kcal/mol |
| CGTTTCACGTGTTTTT | 0.22 kcal/mol |
| TGTATCACGTGCTTAA | 0.04 kcal/mol |
| GGAGTCACGTGCGGAG | 0.04 kcal/mol |
| ATTTGCACGTGTGGAG | 0.03 kcal/mol |
| TCTTACACGTGGCAGG | 0.19 kcal/mol |
| ATGAGCACGTGAGGAT | 0.05 kcal/mol |

| Sequence | relative binding free energy |
| --- | --- |
| GGTCACACGTGGGGCG | 0.05 kcal/mol |
| ATAATCACGTGTGGTA | 0.04 kcal/mol |
| GACTTCACGTGTTGTG | 0.13 kcal/mol |
| TGGGGCACGTGGCTAG | -0.12 kcal/mol |
| GCATGCACGTGGGGAT | -0.09 kcal/mol |
| TACGTCACGTGAATTG | 0.28 kcal/mol |
| CTTGGCACGTGGGATC | 0.04 kcal/mol |
| GCTAGCACGTGCGGGG | -0.09 kcal/mol |
| AGTTGCACGTGAGGGA | 0.26 kcal/mol |
| GGGTTCACGTGTGATC | 0.39 kcal/mol |
| TCGATCACGTGTAGTG | 0.19 kcal/mol |
| TCATGCACGTGGTTAA | -0.07 kcal/mol |
| TTCTGCACGTGGCTTT | -0.1 kcal/mol |
| AGGTACACGTGTTTAT | -0.01 kcal/mol |
| TGGAGCACGTGTAGTC | -0.03 kcal/mol |
| CAATTCACGTGTTTTA | 0.25 kcal/mol |
| GAGGTCACGTGGTAGT | 0.09 kcal/mol |
| TGTAACACGTGTTTCT | -0.05 kcal/mol |
| TGAGGCACGTGAGTGG | 0.14 kcal/mol |
| TGAGTCACGTGTTTGC | 0.09 kcal/mol |
| AGTATCACGTGTGGTA | 0.14 kcal/mol |
